# Values quoted from earlier work as cited in publication PMC11006913.
# Some of the results follow.
# Target: PITX2 R130W (Homo sapiens) (UniProt Q99697)
# Conditions: PBM; conditions not shown; double strand, one strand shown; scale: upbm affinity estimate (log intensity, higher = more binding, comparable within an allelic series)
row,Sequence,binding signal
1,CCTCCTCG [8-mer CCTCCTCG],7.98
2,TAATCCCA [8-mer TAATCCCA],8.65
3,CGTTAATC [8-mer CGTTAATC],8.63
4,GAACTGGC [8-mer GAACTGGC],8.05
5,GAGAGCCC [8-mer GAGAGCCC],7.92
6,AGATTAGC [8-mer AGATTAGC],8.53
7,ATTAGCCG [8-mer ATTAGCCG],8.46
8,CTATAATC [8-mer CTATAATC],8.78
9,CCTGGTAG [8-mer CCTGGTAG],8.1
10,CGGTTTAG [8-mer CGGTTTAG],8.39
11,AGCGCGGG [8-mer AGCGCGGG],7.97
12,CCGGTACC [8-mer CCGGTACC],8

# Target: PITX2 T114P (Homo sapiens) (UniProt Q99697)
# Conditions: PBM; conditions not shown; double strand, one strand shown; scale: upbm affinity estimate (log intensity, higher = more binding, comparable within an allelic series)
row,Sequence,binding signal
1,CGTTGGCC [8-mer CGTTGGCC],8.2
2,GAGCGGGC [8-mer GAGCGGGC],8.02
3,AGCATGCT [8-mer AGCATGCT],8.43
4,CGCCCGAC [8-mer CGCCCGAC],8.11
5,TAGATTAA [8-mer TAGATTAA],9.46
6,GTGCGCCA [8-mer GTGCGCCA],8.18
7,GGATTACC [8-mer GGATTACC],9.7
8,CGGGGTCC [8-mer CGGGGTCC],8.1
9,GGCCCCCC [8-mer GGCCCCCC],7.76
10,CCTGCACC [8-mer CCTGCACC],8.16
11,ATAATCCG [8-mer ATAATCCG],9.97
12,AACCGGGC [8-mer AACCGGGC],8.18
13,AGTTAATC [8-mer AGTTAATC],9.55
14,CGACGGCG [8-mer CGACGGCG],8.12
15,ACGGGTCC [8-mer ACGGGTCC],8.13
16,ATTAAGCC [8-mer ATTAAGCC],9.6
17,CGCCACCC [8-mer CGCCACCC],8.14
18,CCGGTCTC [8-mer CCGGTCTC],8.06
19,GCGCAGAC [8-mer GCGCAGAC],8.15
20,CAGATTAG [8-mer CAGATTAG],9.2

row,Sequence,binding signal
1,AAAGATTA [8-mer AAAGATTA],9.36
2,GTCCCCAC [8-mer GTCCCCAC],8.14
3,CGGCCCCC [8-mer CGGCCCCC],8.02
4,GATTAAGC [8-mer GATTAAGC],9.45
5,ACTAATCC [8-mer ACTAATCC],10.4
6,AAGATTAA [8-mer AAGATTAA],9.42
7,CAGGCCCA [8-mer CAGGCCCA],8.15
8,CGGGACCA [8-mer CGGGACCA],8.1
9,CCTCCTCG [8-mer CCTCCTCG],8.1
10,TAATCCCA [8-mer TAATCCCA],10.2
11,CGTTAATC [8-mer CGTTAATC],9.54
12,GAACTGGC [8-mer GAACTGGC],8.1
13,GAGAGCCC [8-mer GAGAGCCC],8.03
14,AGATTAGC [8-mer AGATTAGC],9.32
15,ATTAGCCG [8-mer ATTAGCCG],8.67
16,CTATAATC [8-mer CTATAATC],9.45
17,CCTGGTAG [8-mer CCTGGTAG],8.17
18,CGGTTTAG [8-mer CGGTTTAG],8.56
19,AGCGCGGG [8-mer AGCGCGGG],8.09
20,CCGGTACC [8-mer CCGGTACC],8.2
